No constants are given. Whether binding was seen depends on the method and setting. In cells and extracts the contact can be indirect. Some entries that bind do so weakly or less than the wild type. Sequences can lack the tags named with a protein.
The binders below were run against GST-CRKL-SH2 (fusion of glutathione S-transferase with the CRKL-SH2 domain) (UniProt P46109) (assay: pull-down; GST-CRKL-SH2 on glutathione beads rocked with HEK 293 cell lysates (BCLB) at 4 °C, washed three times with BCLB, blot with anti-Flag or anti-Myc; cells untreated, stimulated with 8.8 mM H2O2, co-expressing Fyn and/or c-Abl, or treated with Src-1 or STI571 alone before H2O2; only the target purified).

The chains behind the UniProt entries cited, without tags or fusion partners. Residues count along the entry.
UniProt P46109, residues 14-102: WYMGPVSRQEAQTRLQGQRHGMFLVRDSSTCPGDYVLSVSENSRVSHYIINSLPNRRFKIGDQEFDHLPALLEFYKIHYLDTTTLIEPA

Binder	binding
DCBLD2-Y1F (Tyr750Phe) (receptor, UniProt Q96PD2 67-775) QQGDGCGHTVLGPESGTLTSINYPQTYPNSTVCEWEIRVKMGERVRIKFGDFDIEDSDSCHFNYLRIYNGIGVSRTEIGKYCGLGLQMNHSIESKGNEITLLFMSGIHVSGRGFLASYSVIDKQDLITCLDTASNFLEPEFSKYCPAGCLLPFAEISGTIPHGYRDSSPLCMAGVHAGVVSNTLGGQISVVISKGIPYYESSLANNVTSVVGHLSTSLFTFKTSGCYGTLGMESGVIADPQITASSVLEWTDHTGQENSWKPKKARLKKPGPPWAAFATDEYQWLQIDLNKEKKITGIITTGSTMVEHNYYVSAYRILYSDDGQKWTVYREPGVEQDKIFQGNKDYHQDVRNNFLPPIIARFIRVNPTQWQQKIAMKMELLGCQFIPKGRPPKLTQPPPPRNSNDLKNTTAPPKIAKGRAPKFTQPLQPRSSNEFPAQTEQTTASPDIRNTTVTPNVTKDVALAAVLVPVLVMVLTTLILILVCAWHWRNRKKKTEGTYDLPYWDRAGWWKGMKQFLPAKAVDHEETPVRYSSSEVNHLSPREVTTVLQADSAEYAQPLVGGIVGTLHQRSTFKPEEGKEAGYADLDPYNSPGQEVYHAYAEPLPITGPEYATPIIMDMSGHPTTSVGQPSTSTFKATGNQPPPLVGTYNTLLSRTDSCSSAQAQYDTPKAGKPGLPAPDELVFQVPQSTQEVSGAGRDGECDVFKEIL	binds
DCBLD2-Y3F (Tyr750Phe, Tyr732Phe, Tyr565Phe) (receptor, UniProt Q96PD2 67-775) QQGDGCGHTVLGPESGTLTSINYPQTYPNSTVCEWEIRVKMGERVRIKFGDFDIEDSDSCHFNYLRIYNGIGVSRTEIGKYCGLGLQMNHSIESKGNEITLLFMSGIHVSGRGFLASYSVIDKQDLITCLDTASNFLEPEFSKYCPAGCLLPFAEISGTIPHGYRDSSPLCMAGVHAGVVSNTLGGQISVVISKGIPYYESSLANNVTSVVGHLSTSLFTFKTSGCYGTLGMESGVIADPQITASSVLEWTDHTGQENSWKPKKARLKKPGPPWAAFATDEYQWLQIDLNKEKKITGIITTGSTMVEHNYYVSAYRILYSDDGQKWTVYREPGVEQDKIFQGNKDYHQDVRNNFLPPIIARFIRVNPTQWQQKIAMKMELLGCQFIPKGRPPKLTQPPPPRNSNDLKNTTAPPKIAKGRAPKFTQPLQPRSSNEFPAQTEQTTASPDIRNTTVTPNVTKDVALAAVLVPVLVMVLTTLILILVCAWHWRNRKKKTEGTFDLPYWDRAGWWKGMKQFLPAKAVDHEETPVRYSSSEVNHLSPREVTTVLQADSAEYAQPLVGGIVGTLHQRSTFKPEEGKEAGYADLDPYNSPGQEVYHAYAEPLPITGPEYATPIIMDMSGHPTTSVGQPSTSTFKATGNQPPPLVGTYNTLLSRTDSCSSAQAQFDTPKAGKPGLPAPDELVFQVPQSTQEVSGAGRDGECDVFKEIL	binds
DCBLD1-Y8F (human DCBLD1 with all intracellular YxxP motifs mutated to FxxP) (receptor, UniProt Q8N8Z6 35-715) EELGDGCGHLVTYQDSGTMTSKNYPGTYPNHTVCEKTITVPKGKRLILRLGDLDIESQTCASDYLLFTSSSDQYGPYCGSMTVPKELLLNTSEVTVRFESGSHISGRGFLLTYASSDHPDLITCLERASHYLKTEYSKFCPAGCRDVAGDISGNMVDGYRDTSLLCKAAIHAGIIADELGGQISVLQRKGISRYEGILANGVLSRDGSLSDKRFLFTSNGCSRSLSFEPDGQIRASSSWQSVNESGDQVHWSPGQARLQDQGPSWASGDSSNNHKPREWLEIDLGEKKKITGIRTTGSTQSNFNFYVKSFVMNFKNNNSKWKTYKGIVNNEEKVFQGNSNFRDPVQNNFIPPIVARYVRVVPQTWHQRIALKVELIGCQITQGNDSLVWRKTSQSTSVSTKKEDETITRPIPSEETSTGINITTVAIPLVLLVVLVFAGMGIFAAFRKKKKKGSPYGSAEAQKTDCWKQIKYPFARHQSAEFTISYDNEKEMTQKLDLITSDMADFQQPLMIGTGTVTRKGSTFRPMDTDAEEAGVSTDAGGHFDCPQRAGRHEFALPLAPPEPEFATPIVERHVLRAHTFSAQSGFRVPGPQPGHKHSLSSGGFSPVAGVGAQDGDFQRPHSAQPADRGFDRPKAVSALATESGHPDSQKPPTHPGTSDSFSAPRDCLTPLNQTAMTALL	no binding

Other lines, results leading:

binding	Binder
no binding	DCBLD2-Y7F (Tyr750Phe, Tyr732Phe, Tyr677Phe, Tyr666Phe, Tyr655Phe, Tyr621Phe, Tyr565Phe) (receptor, UniProt Q96PD2 67-775) QQGDGCGHTVLGPESGTLTSINYPQTYPNSTVCEWEIRVKMGERVRIKFGDFDIEDSDSCHFNYLRIYNGIGVSRTEIGKYCGLGLQMNHSIESKGNEITLLFMSGIHVSGRGFLASYSVIDKQDLITCLDTASNFLEPEFSKYCPAGCLLPFAEISGTIPHGYRDSSPLCMAGVHAGVVSNTLGGQISVVISKGIPYYESSLANNVTSVVGHLSTSLFTFKTSGCYGTLGMESGVIADPQITASSVLEWTDHTGQENSWKPKKARLKKPGPPWAAFATDEYQWLQIDLNKEKKITGIITTGSTMVEHNYYVSAYRILYSDDGQKWTVYREPGVEQDKIFQGNKDYHQDVRNNFLPPIIARFIRVNPTQWQQKIAMKMELLGCQFIPKGRPPKLTQPPPPRNSNDLKNTTAPPKIAKGRAPKFTQPLQPRSSNEFPAQTEQTTASPDIRNTTVTPNVTKDVALAAVLVPVLVMVLTTLILILVCAWHWRNRKKKTEGTFDLPYWDRAGWWKGMKQFLPAKAVDHEETPVRYSSSEVNHLSPREVTTVLQADSAEFAQPLVGGIVGTLHQRSTFKPEEGKEAGYADLDPFNSPGQEVYHAFAEPLPITGPEFATPIIMDMSGHPTTSVGQPSTSTFKATGNQPPPLVGTYNTLLSRTDSCSSAQAQFDTPKAGKPGLPAPDELVFQVPQSTQEVSGAGRDGECDVFKEIL
binds	human DCBLD1 WT, C-terminal Myc and Flag tags (receptor, UniProt Q8N8Z6 35-715) EELGDGCGHLVTYQDSGTMTSKNYPGTYPNHTVCEKTITVPKGKRLILRLGDLDIESQTCASDYLLFTSSSDQYGPYCGSMTVPKELLLNTSEVTVRFESGSHISGRGFLLTYASSDHPDLITCLERASHYLKTEYSKFCPAGCRDVAGDISGNMVDGYRDTSLLCKAAIHAGIIADELGGQISVLQRKGISRYEGILANGVLSRDGSLSDKRFLFTSNGCSRSLSFEPDGQIRASSSWQSVNESGDQVHWSPGQARLQDQGPSWASGDSSNNHKPREWLEIDLGEKKKITGIRTTGSTQSNFNFYVKSFVMNFKNNNSKWKTYKGIVNNEEKVFQGNSNFRDPVQNNFIPPIVARYVRVVPQTWHQRIALKVELIGCQITQGNDSLVWRKTSQSTSVSTKKEDETITRPIPSEETSTGINITTVAIPLVLLVVLVFAGMGIFAAFRKKKKKGSPYGSAEAQKTDCWKQIKYPFARHQSAEFTISYDNEKEMTQKLDLITSDMADYQQPLMIGTGTVTRKGSTFRPMDTDAEEAGVSTDAGGHYDCPQRAGRHEYALPLAPPEPEYATPIVERHVLRAHTFSAQSGYRVPGPQPGHKHSLSSGGFSPVAGVGAQDGDYQRPHSAQPADRGYDRPKAVSALATESGHPDSQKPPTHPGTSDSYSAPRDCLTPLNQTAMTALL

From paper PMC6029619
